Reference: the supplement of paper PMC4967469
IC50 is the fitted dose that halves viability relative to control wells, and lower means more sensitive; a fit beyond the top or the lowest dose is shown as a bound at that dose. For AUC the same curve is integrated over the 256-fold range of doses and scaled to a fraction; the more sensitive the line, the further below 1. For some assays here: Where the top dose is marked as inferred, it was calculated from the reported fits.

Columns and labels:
Assay in all cases: Viability of human cancer cell lines after 72 h of drug (GDSC screen)
Vorinostat = compound: O=C(CCCCCCC(=O)Nc1ccccc1)NO [Vorinostat]; settings: top dose 10 µM
Description: (§1)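 Human cancer cell lines in 384-well plates, medium with 10% serum, drug for 72 h over a 256-fold dose range (nine 2-fold or five 4-fold steps up to the top dose). Adherent lines were fixed and stained with the nucleic acid dye Syto60, suspension lines read with resazurin; signal relative to control wells, capped at 0 and 100%. One two-parameter sigmoid per drug and line, fitted in a mixed model over all curves with the slope shared within a line.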

Dabrafenib = compound: CC(C)(C)c1nc(-c2cccc(NS(=O)(=O)c3c(F)cccc3F)c2F)c(-c2ccnc(N)n2)s1 [Dabrafenib]; settings: top dose 10 µM
Description: as §1

SN-38 = compound: CCc1c2c(nc3ccc(O)cc13)-c1cc3c(c(=O)n1C2)COC(=O)[C@]3(O)CC [SN-38]; settings: top dose 0.05 µM; top dose inferred
Description: as §1

Axitinib = compound: CNC(=O)c1ccccc1Sc1ccc2c(/C=C/c3ccccn3)n[nH]c2c1 [Axitinib]; settings: top dose 2 µM
Description: as §1

Methotrexate = compound: CN(Cc1cnc2nc(N)nc(N)c2n1)c1ccc(C(=O)N[C@@H](CCC(=O)O)C(=O)O)cc1 [Methotrexate]; settings: top dose 0.2 µM
Description: as §1

DND-41 (T-cell leukaemia, suspension)
AUC (Vorinostat): 0.684 | IC50 (Vorinostat): 1910 nM | AUC (Dabrafenib): 0.834 | IC50 (Dabrafenib): 5480 nM | AUC (SN-38): 0.335 | IC50 (SN-38): 1.16 nM | AUC (Axitinib): 0.977 | IC50 (Axitinib): > 2000 nM

LS-411N (large intestine, adherent)
AUC (Vorinostat): 0.738 | IC50 (Vorinostat): 3530 nM | AUC (SN-38): 0.831 | IC50 (SN-38): 41.7 nM | AUC (Axitinib): 0.945 | IC50 (Axitinib): > 2000 nM

ES-2 (ovary, adherent)
AUC (Vorinostat): 0.684 | IC50 (Vorinostat): 1900 nM | AUC (Methotrexate): 0.914 | IC50 (Methotrexate): > 200 nM | AUC (SN-38): 0.64 | IC50 (SN-38): 7.2 nM | AUC (Axitinib): 0.931 | IC50 (Axitinib): > 2000 nM

NB6 (neuroblastoma, adherent)
AUC (Vorinostat): 0.69 | IC50 (Vorinostat): 2430 nM | AUC (Methotrexate): 0.984 | IC50 (Methotrexate): > 200 nM | AUC (SN-38): 0.982 | IC50 (SN-38): > 50 nM | AUC (Axitinib): 0.96 | IC50 (Axitinib): > 2000 nM

WM-115 (melanoma, adherent)
AUC (Vorinostat): 0.725 | IC50 (Vorinostat): 3200 nM | AUC (Methotrexate): 0.923 | IC50 (Methotrexate): > 200 nM | AUC (SN-38): 0.817 | IC50 (SN-38): 36.4 nM | AUC (Axitinib): 0.961 | IC50 (Axitinib): > 2000 nM

NCI-H187 (small cell lung carcinoma, suspension)
AUC (Vorinostat): 0.636 | IC50 (Vorinostat): 1540 nM | AUC (Dabrafenib): 0.987 | IC50 (Dabrafenib): > 10000 nM | AUC (SN-38): 0.739 | IC50 (SN-38): 16.1 nM | AUC (Axitinib): 0.974 | IC50 (Axitinib): > 2000 nM

KMRC-1 (kidney, adherent)
AUC (Vorinostat): 0.898 | IC50 (Vorinostat): > 10000 nM | AUC (Methotrexate): 0.985 | IC50 (Methotrexate): > 200 nM | AUC (SN-38): 0.691 | IC50 (SN-38): 11.1 nM | AUC (Axitinib): 0.959 | IC50 (Axitinib): > 2000 nM

KON (head and neck, adherent)
AUC (Vorinostat): 0.75 | IC50 (Vorinostat): 3200 nM | AUC (Dabrafenib): 0.907 | IC50 (Dabrafenib): > 10000 nM | AUC (SN-38): 0.386 | IC50 (SN-38): 1.53 nM | AUC (Axitinib): 0.864 | IC50 (Axitinib): 1690 nM

LN-229 (glioma, adherent)
AUC (Vorinostat): 0.802 | IC50 (Vorinostat): 4910 nM | AUC (Dabrafenib): 0.969 | IC50 (Dabrafenib): > 10000 nM | AUC (SN-38): 0.55 | IC50 (SN-38): 4.28 nM | AUC (Axitinib): 0.988 | IC50 (Axitinib): > 2000 nM

HT-1080 (fibrosarcoma, adherent)
AUC (Vorinostat): 0.74 | IC50 (Vorinostat): 2770 nM | AUC (Methotrexate): 0.986 | IC50 (Methotrexate): > 200 nM | AUC (SN-38): 0.277 | IC50 (SN-38): 0.79 nM | AUC (Axitinib): 0.973 | IC50 (Axitinib): > 2000 nM

A2058 (melanoma, adherent)
AUC (Vorinostat): 0.82 | IC50 (Vorinostat): 4960 nM | AUC (Methotrexate): 0.959 | IC50 (Methotrexate): > 200 nM | AUC (SN-38): 0.396 | IC50 (SN-38): 1.67 nM | AUC (Axitinib): 0.989 | IC50 (Axitinib): > 2000 nM

TYK-nu (ovary, adherent)
AUC (Vorinostat): 0.646 | IC50 (Vorinostat): 1640 nM | AUC (Dabrafenib): 0.773 | IC50 (Dabrafenib): 4150 nM | AUC (SN-38): 0.439 | IC50 (SN-38): 2.1 nM | AUC (Axitinib): 0.976 | IC50 (Axitinib): > 2000 nM

CAL-33 (head and neck, adherent)
AUC (Vorinostat): 0.592 | IC50 (Vorinostat): 1120 nM | AUC (Methotrexate): 0.95 | IC50 (Methotrexate): > 200 nM | AUC (SN-38): 0.496 | IC50 (SN-38): 3.04 nM | AUC (Axitinib): 0.886 | IC50 (Axitinib): > 2000 nM

MSTO-211H (mesothelioma, adherent)
AUC (Vorinostat): 0.851 | IC50 (Vorinostat): 6580 nM | AUC (Methotrexate): 0.915 | IC50 (Methotrexate): > 200 nM | AUC (Axitinib): 0.968 | IC50 (Axitinib): > 2000 nM

NCI-H838 (lung adenocarcinoma, adherent)
AUC (Vorinostat): 0.765 | IC50 (Vorinostat): 3810 nM | AUC (Dabrafenib): 0.977 | IC50 (Dabrafenib): > 10000 nM | AUC (SN-38): 0.753 | IC50 (SN-38): 17.3 nM | AUC (Axitinib): 0.973 | IC50 (Axitinib): > 2000 nM

KYSE-410 (oesophagus, adherent)
AUC (Vorinostat): 0.613 | IC50 (Vorinostat): 1310 nM | AUC (Methotrexate): 0.608 | IC50 (Methotrexate): 25.3 nM | AUC (SN-38): 0.789 | IC50 (SN-38): 23.8 nM | AUC (Axitinib): 0.889 | IC50 (Axitinib): > 2000 nM

NCI-H1048 (small cell lung carcinoma, adherent)
AUC (Vorinostat): 0.739 | IC50 (Vorinostat): 2760 nM | AUC (Dabrafenib): 0.989 | IC50 (Dabrafenib): > 10000 nM | AUC (SN-38): 0.232 | IC50 (SN-38): 0.579 nM | AUC (Axitinib): 0.903 | IC50 (Axitinib): > 2000 nM

P30-OHK (lymphoblastic leukaemia, suspension)
AUC (Vorinostat): 0.525 | IC50 (Vorinostat): 721 nM | AUC (Methotrexate): 0.554 | IC50 (Methotrexate): 17.1 nM | AUC (SN-38): 0.429 | IC50 (SN-38): 2.07 nM | AUC (Axitinib): 0.912 | IC50 (Axitinib): > 2000 nM

HCC1395 (breast, adherent)
AUC (Vorinostat): 0.857 | IC50 (Vorinostat): > 10000 nM | AUC (Dabrafenib): 0.957 | IC50 (Dabrafenib): > 10000 nM | AUC (SN-38): 0.83 | IC50 (SN-38): 40.4 nM | AUC (Axitinib): 0.887 | IC50 (Axitinib): > 2000 nM

KGN (ovary, adherent)
AUC (Vorinostat): 0.842 | IC50 (Vorinostat): 9370 nM | AUC (Methotrexate): 0.852 | IC50 (Methotrexate): > 200 nM | AUC (SN-38): 0.457 | IC50 (SN-38): 2.33 nM | AUC (Axitinib): 0.96 | IC50 (Axitinib): > 2000 nM

8-MG-BA (glioma, adherent)
AUC (Vorinostat): 0.75 | IC50 (Vorinostat): 3090 nM | AUC (Methotrexate): 0.985 | IC50 (Methotrexate): > 200 nM | AUC (SN-38): 0.422 | IC50 (SN-38): 1.94 nM | AUC (Axitinib): 0.928 | IC50 (Axitinib): > 2000 nM

PCI-4B (head and neck, adherent)
AUC (Vorinostat): 0.536 | IC50 (Vorinostat): 779 nM | AUC (Methotrexate): 0.789 | IC50 (Methotrexate): 83.7 nM | AUC (SN-38): 0.479 | IC50 (SN-38): 2.75 nM | AUC (Axitinib): 0.937 | IC50 (Axitinib): > 2000 nM

KARPAS-1106P (B-cell lymphoma, suspension)
AUC (Vorinostat): 0.445 | IC50 (Vorinostat): 454 nM | AUC (Dabrafenib): 0.987 | IC50 (Dabrafenib): > 10000 nM | AUC (SN-38): 0.512 | IC50 (SN-38): 3.35 nM | AUC (Axitinib): 0.993 | IC50 (Axitinib): > 2000 nM

Calu-3 (lung adenocarcinoma, adherent)
AUC (Vorinostat): 0.8 | IC50 (Vorinostat): 6370 nM | AUC (Dabrafenib): 0.977 | IC50 (Dabrafenib): > 10000 nM | AUC (SN-38): 0.644 | IC50 (SN-38): 8.71 nM | AUC (Axitinib): 0.979 | IC50 (Axitinib): > 2000 nM

GCIY (stomach, adherent)
AUC (Vorinostat): 0.792 | IC50 (Vorinostat): 5170 nM | AUC (Methotrexate): 0.983 | IC50 (Methotrexate): > 200 nM | AUC (Axitinib): 0.977 | IC50 (Axitinib): > 2000 nM

A253 (head and neck, adherent)
AUC (Vorinostat): 0.745 | IC50 (Vorinostat): 3070 nM | AUC (Dabrafenib): 0.988 | IC50 (Dabrafenib): > 10000 nM | AUC (SN-38): 0.591 | IC50 (SN-38): 5.51 nM | AUC (Axitinib): 0.968 | IC50 (Axitinib): > 2000 nM

HCC70 (breast, adherent)
AUC (Vorinostat): 0.742 | IC50 (Vorinostat): 3040 nM | AUC (Dabrafenib): 0.987 | IC50 (Dabrafenib): > 10000 nM | AUC (SN-38): 0.903 | IC50 (SN-38): > 50 nM | AUC (Axitinib): 0.944 | IC50 (Axitinib): > 2000 nM

HCC1954 (breast, adherent)
AUC (Vorinostat): 0.915 | IC50 (Vorinostat): > 10000 nM | AUC (Dabrafenib): 0.98 | IC50 (Dabrafenib): > 10000 nM | AUC (Axitinib): 0.972 | IC50 (Axitinib): > 2000 nM

SBC-5 (small cell lung carcinoma, adherent)
AUC (Vorinostat): 0.704 | IC50 (Vorinostat): 2060 nM | AUC (Dabrafenib): 0.987 | IC50 (Dabrafenib): > 10000 nM | AUC (SN-38): 0.576 | IC50 (SN-38): 4.84 nM | AUC (Axitinib): 0.963 | IC50 (Axitinib): > 2000 nM

NCI-H510A (small cell lung carcinoma, semi-adherent)
AUC (Vorinostat): 0.581 | IC50 (Vorinostat): 1020 nM | AUC (Methotrexate): 0.989 | IC50 (Methotrexate): > 200 nM | AUC (Axitinib): 0.889 | IC50 (Axitinib): 1950 nM

NCI-H1734 (lung adenocarcinoma, adherent)
AUC (Vorinostat): 0.706 | IC50 (Vorinostat): 2550 nM | AUC (Methotrexate): 0.985 | IC50 (Methotrexate): > 200 nM | AUC (Axitinib): 0.976 | IC50 (Axitinib): > 2000 nM
